Some of the results follow. Many values rest on one well or one pass, so single values are uncertain.
Tests used:
Experiment in all cases: proliferation Z-score within cell line (SRB, relative to all inhibitors screened on that line); triple-negative breast cancer lines and a kinase inhibitor library; SRB is the sulforhodamine B protein stain; higher = less growth inhibition (more resistant)
Conditions in all cases: concentration: 1 µM; 4 days
[1] = system: Bt20
[2] = system: Bt549
[3] = system: HCC1143
[4] = system: HCC1806
[5] = system: HCC1937
[6] = system: HCC38
[7] = system: HCC70
[8] = system: Hs578T
[9] = system: MDA-MB-231
[10] = system: MDA-MB-435s
[11] = system: MDA-MB-436
[12] = system: MDA-MB-453
[13] = system: MDA-MB-468
[14] = system: SKBR7
[15] = system: SUM1315MO2
[16] = system: SUM149PT
[17] = system: SUM159PT
[18] = system: SUM185PE
[19] = system: SUM229PE
[20] = system: SUM52PE
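Further: Single-dose primary screen of a 378-member kinase inhibitor library in 96-well plates, with growth read as absorbance of protein-bound SRB dye after TCA fixation.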

SMILES	proliferation Z-score within cell line [1]	proliferation Z-score within cell line [2]	proliferation Z-score within cell line [3]	proliferation Z-score within cell line [4]	proliferation Z-score within cell line [5]	proliferation Z-score within cell line [6]	proliferation Z-score within cell line [7]	proliferation Z-score within cell line [8]	proliferation Z-score within cell line [9]	proliferation Z-score within cell line [10]	proliferation Z-score within cell line [11]	proliferation Z-score within cell line [12]	proliferation Z-score within cell line [13]	proliferation Z-score within cell line [14]	proliferation Z-score within cell line [15]	proliferation Z-score within cell line [16]	proliferation Z-score within cell line [17]	proliferation Z-score within cell line [18]	proliferation Z-score within cell line [19]	proliferation Z-score within cell line [20]
CC(C)(C)c1cc(NC(=O)Nc2ccc(-c3cn4c(n3)sc3cc(OCCN5CCOCC5)ccc34)cc2)no1 [Quizartinib (AC220)]	0.909	0.651	1.07	0.899	0.47	0.519	0.612	0.272	0.843	0.887	1.07	0.918	1.11	1.18	1.06	0.816	0.681	1.16	0.923	1.1
CCC(=O)Nc1cccc(Oc2nc(Nc3ccc(N4CCN(C)CC4)cc3OC)ncc2Cl)c1	0.59	0.132	0.743	0.604	0.708	0.469	0.639	0.534	0.55	0.691	0.84	0.811	0.687	0.577	0.205	0.617	0.446	0.495	0.261	0.623
CCc1cc(Nc2nccc(-c3c(-c4ccc(OC)c(C(=O)Nc5c(F)cccc5F)c4)nc4ccccn34)n2)c(OC)cc1N1CCC(N2CCN(S(C)(=O)=O)CC2)CC1	1.17	0.475	0.951	0.376	0.585	0.247	0.728	0.0691	0.739	1.04	0.84	-0.668	0.904	-0.596	1.07	0.956	0.565	1.26	1.02	1.23
CNC(=O)c1ccc(C)c(-n2c(C)cc(OCc3ccc(F)cc3F)c(Br)c2=O)c1	0.76	0.656	0.704	1.07	0.832	0.711	0.86	0.696	0.811	1.05	0.929	1.19	0.898	0.771	0.833	1.1	0.76	0.868	1.41	0.751
O=C(Nc1nc2cccc(-c3ccc(CN4CCS(=O)(=O)CC4)cc3)n2n1)C1CC1 [Filgotinib (GLPG0634)]	0.549	0.283	0.394	0.313	0.419	0.469	0.548	0.398	0.588	0.657	0.433	0.655	0.584	0.759	0.663	0.699	0.531	0.992	0.339	0.488
CN(C)CCCn1cc(C2=C(c3c[nH]c4ccccc34)C(=O)NC2=O)c2ccccc21	0.513	0.592	0.567	0.377	0.64	0.424	0.364	0.633	0.823	0.491	1.22	0.877	0.509	1.66	0.863	0.865	0.398	0.76	-0.0743	0.682
Cc1[nH]c(/C=C2\C(=O)Nc3ccccc32)c(C)c1CCC(=O)O [TSU-68 (SU6668, Orantinib)]	0.736	0.529	-0.153	0.723	0.249	0.534	-0.41	0.438	0.752	0.698	-1.04	0.722	0.854	0.538	0.984	0.789	-1.15	0.927	0.72	1.14
Oc1ccc(Nc2nc(-c3ccc(Cl)cc3)cs2)cc1	0.694	0.519	0.718	0.722	0.529	0.481	0.491	0.568	0.6	0.592	0.609	0.393	0.844	0.977	1.08	0.739	0.487	1.04	1.39	1.23
CN(C)c1ccc(-c2nc3ncc(Cl)c(N4CCN(CC(=O)Nc5nccs5)CC4)c3[nH]2)cc1	0.421	0.557	0.763	0.76	0.485	0.602	0.692	0.631	0.703	0.743	0.327	0.803	0.745	1.13	0.312	0.836	0.683	0.509	0.431	0.0679
C[C@@H]1COC(Nc2ccc3ncnc(Nc4ccc(OCc5nccs5)c(Cl)c4)c3c2)=N1 [Varlitinib]	0.611	1	0.728	0.592	0.797	0.715	0.836	0.782	0.86	1.05	1.11	0.976	0.239	1.04	1.07	0.251	0.723	0.858	0.697	1.29
Cc1cnc(-c2cnc(NCCNc3ccc(C#N)cn3)nc2-c2ccc(Cl)cc2Cl)[nH]1	1.28	0.768	0.742	0.715	0.891	0.48	0.603	0.543	0.143	0.688	1	0.623	1.09	0.321	2.5	1.1	0.351	1.72	1.6	1.28
N[C@@H]1CCCN(c2c(/C=C3\SC(=O)NC3=O)cccc2-c2ccccc2)C1	0.413	0.128	0.524	0.574	0.458	0.554	0.6	0.65	0.417	0.028	0.67	0.734	0.793	0.111	0.27	0.643	0.448	0.109	0.292	0.822
Clc1ccc(Nc2nnc(Cc3ccncc3)c3ccccc23)cc1 [Vatalanib (PTK787) 2HCl]	0.42	0.809	1.07	0.981	0.881	0.55	0.971	0.523	0.841	0.922	0.844	0.875	0.673	1.11	0.262	0.786	0.626	0.0392	0.514	0.381
